Among all 52,000 compounds or so, about 1,700 (3.3%) were called active. No stated cut-off is given here; in the data, active means survival mostly below about 52% (no sharp cut-off); inactive means mostly above about 56%. The list shows a part of the results.

For the assay, the system named is Wild type. In words: growth inhibition of S. aureus wild type versus tarO mutant, primary screen, teichoic acid synthesis inhibitors, RN4220, OD600 (AID 463173). The settings on record: S. aureus RN4220 wild type/DeltatarO growth, OD600, 18 h, active compounds read low, screened at 18.75 µg/mL (by protocol).
Take `COc1cccc(-c2cc(C(F)(F)F)n3ncc(C(=O)NN4CCN(C)CC4)c3n2)c1`: the survival was inactive: 104%.
For `CCOc1ccccc1CN1CCN(S(=O)(=O)c2ccccc2)CC1` the value was inactive: 105%; for `CCOC(=O)c1c(-c2ccccc2)oc2ccc(NS(=O)(=O)c3cc(C)c(C)cc3C)cc12`, inactive: 81%; for `COc1ccccc1NC(=O)CSC1=Nc2ccccc2C2=NC(CC(=O)NCc3ccco3)C(=O)N12` (centres undefined), inactive: 135%.
Regarding `COc1ccc(NC(=O)c2oc3ccc(S(=O)(=O)N4CCCCC4)cc3c2C)cc1`, the survival was inactive: 85%.
As for `CCOc1ccc(CNC(=O)C2Cc3ccccc3N2C(=O)CC)cc1OC` (centres undefined), the figure is inactive: 68%; as for `CCCc1nn2c(=O)cc(COC(=O)c3ccccc3NC(=O)COc3ccccc3F)nc2s1`, inactive: 91%; as for `Cc1cccc(CNC(=O)CCn2c(=O)c3cccn3c3ccc(F)cc32)c1`, inactive: 112%.
`Cc1ccc(NC(=O)CN2C(=O)CCc3cc(S(=O)(=O)N4CCOCC4)ccc32)cc1F`: the survival was inactive: 60%.
As for `COc1ccc(OC)c(CNC(=O)c2ccc(Sc3ccc(C)cc3)c(N)c2)c1`, the figure is inactive: 87%; as for `CCc1ccc(-n2nc(C)c3c(C)cc(=O)n(Cc4nc(-c5ccccc5)oc4C)c32)cc1`, inactive: 124%; as for `CCCOC(=O)c1c(NC(=O)c2nc3ncccn3n2)sc(C(N)=O)c1C`, inactive: 69%.
For `Cc1nc2c(C(=O)NCCCN(CC(C)C)CC(C)C)cnn2c(C)c1Cc1c(F)cccc1Cl` the value was inactive: 83%.
`Cc1cccc(NS(=O)(=O)c2c(C)nc3sccn3c2=O)c1C`: the survival was inactive: 99%.
For `O=C(NCc1ccccc1Cl)c1cc2c(s1)-c1ccc(Cl)cc1SC2` the value was inactive: 92%; for `CCSc1nc2c([nH]c3ccccc32)c(=O)n1CC`, inactive: 86%; for `COc1cccc(CNCCNC(=O)c2nonc2N)c1`, inactive: 86%.
As to `CC(NC(=O)CSc1ncccn1)c1ccccc1` (centres undefined), the survival was inactive: 100%.
As for `Cc1ccc(C(=O)CSc2nc(-c3ccccc3)nc3c2CCCC3)cc1`, the figure is inactive: 55%; as for `CCOc1ccccc1NC(=O)N1CC(CC)Oc2ccccc21` (centres undefined), inactive: 81%; as for `CCOC(=O)CSc1nc(-c2ccc(C)cc2C)cc(-c2ccccc2)c1C#N`, inactive: 63%.
For `COC(=O)c1cc2sccc2n1CCC#N` the value was inactive: 102%.
For `Cc1cccc(CSc2ncc(Cl)c(C(=O)Nc3sc4c(c3C(N)=O)CCCC4)n2)c1`, the survival is inactive: 116%.
For `CC(C)(C)C(=O)Nc1cccc(-c2cn3cccnc3n2)c1` the value was inactive: 70%.
For the compound `Cc1ccc(-c2nnc(N3CCOCC3)c3ccccc23)cc1S(=O)(=O)N1CCN(C)CC1`, the survival is inactive: 102%.
As for `CC(=O)N1CCc2c(sc(NC(=O)CSc3ccccc3)c2-c2nc3ccccc3s2)C1`, the figure is inactive: 120%; as for `COc1cccc(-n2c(=O)c3c(C)c(C)sc3n(CC(=O)NCc3ccc(C)cc3)c2=O)c1`, inactive: 75%.
As for `O=C(N/N=C/c1ccccc1)Nc1ccccc1`, the figure is inactive: 102%; as for `CCn1c(CCc2ccccc2)n[nH]c1=S`, inactive: 114%; as for `Cc1c(C(=O)NCc2cccc(Cl)c2)sc2ncnc(N(C)C3CCCCC3)c12`, inactive: 78%.
For `CC(=O)NC1C(=O)N(C(C)C)c2ccccc21` (centres undefined) the value was inactive: 96%; for `O=C(Cn1c(=O)nc(-c2ccccc2)c2ccccc21)Nc1cccc(C(F)(F)F)c1`, inactive: 126%; for `Cc1ccc(Cc2c(C)nc3nc(SCC(=O)NC4CCC(C)CC4)nn3c2C)cc1` (centres undefined), inactive: 129%.
In the case of `c1ccc(C2SCCN2c2ccccc2)cc1` (centres undefined), the survival is inactive: 86%.
For `CCOC(=O)c1ccc2c(c1)N(CC(=O)N(C)c1ccccc1)C(=O)c1ccccc1S2`, the survival is inactive: 110%.
In the case of `COc1ccc(-c2cn(-c3ccc(C)cc3)c(S(=O)(=O)CC(=O)Nc3ccc(F)cc3)n2)cc1`, the survival is inactive: 110%.
For `COc1ccccc1NC(=O)c1cc(=O)c2ccc(C)c(C)c2o1` the value was inactive: 81%; for `CCOc1ccc(CCNC(=O)c2cc3c(=O)oc4ccc(C)cc4c3s2)cc1OCC`, inactive: 89%; for `Cc1nn(CCC(=O)Nc2cc(F)ccc2F)c(=O)c2nn(-c3ccccc3)c(C)c12`, inactive: 80%.
Turning to `N#C/C(=C\C1CC=CCC1)c1nc2ccccc2[nH]1` (centres undefined), the survival was inactive: 125%.
Regarding `N#C/C(=C\c1ccc(-c2ccc(C(=O)O)cc2)o1)C(=O)Nc1ccccc1C(=O)O`, the survival is inactive: 70%.
Consider `COc1cc(Nc2nc(SCC(=O)c3ccc(Br)cc3)nc3ccccc23)cc(OC)c1`, for which the survival is inactive: 81%.
With `O=C(CC1N=C2c3ccccc3N=C(SCc3cccc(Cl)c3)N2C1=O)NCc1ccc2c(c1)OCO2` (centres undefined), the survival is inactive: 86%.
For the compound `CC1CCCCN1C(=O)CSc1n[nH]c(-c2ccccc2Cl)n1` (centres undefined), the survival is inactive: 72%.
On to `COc1cccc(C2=C(C(C)=O)Sc3nnc(C4CCCCC4)n3N2C(C)=O)c1`, for which the survival is inactive: 71%.
For `COc1cccc(CNC(=O)CSc2n[nH]c(-c3ccccc3Cl)n2)c1OC` the value was inactive: 133%; for `CN1CCN(C(=O)CCCC(=O)O)CC1`, inactive: 114%.
For `CCOc1ccccc1CNC(=O)c1cn(-c2ccc(OC)cc2)c(=O)c2ccccc12` the value was inactive: 111%; for `CCOc1ccc(NC(=O)[C@H]2O[C@@H]3OC(C)(C)O[C@@H]3[C@H]3OC(C)(C)O[C@H]32)cc1`, inactive: 90%.
For `CCOC(=O)c1c(NC=O)sc2c1CCCC2` the value was inactive: 113%; for `Cc1cccc(NC(=O)CSc2nc(=O)n(Cc3ccco3)c3c2CCC3)c1C`, inactive: 71%; for `CCc1nn(CC(=O)NCc2ccccc2Cl)c(=O)c2cc3ccccc3n12`, inactive: 80%.
Regarding `O=c1c(N2CCN(c3cccc(Cl)c3)CC2)csc2ccccc12`, the survival was inactive: 86%.
For `Cc1cc(C)cc(NC(=O)C(=O)NCCCN2CCOCC2)c1` the value was inactive: 76%.
For `Cc1ccc2cc3cc(C(=O)N4CCN(c5ccccc5)CC4)oc3nc2c1` the value was inactive: 55%; for `O=C(Nc1nc2ccc(S(=O)(=O)N3CCCC3)cc2s1)c1ccc(F)cc1`, inactive: 65%; for `CC1CCCCN1CCCNC(=O)c1ccc2c(c1)sc1nc(-c3ccc(F)cc3)cn12` (centres undefined), inactive: 26%.
With `C/C(CC1CC(COCCC(C)C)OC1=O)=N\NC(N)=S` (centres undefined), the survival is inactive: 108%.
For `CCc1ccc(Oc2c(C(F)(F)F)oc3c(CN4CCN(CC)CC4)c(O)ccc3c2=O)cc1` the value was inactive: 87%.

(Values after PubChem BioAssay AID463173 (ICCB-Longwood Screening Facility, Harvard Medical School, 2010).)
